In PMC9669019, “Molecular basis for integrin adhesion receptor binding to p21-activated kinase 4 (PAK4)” (Communications Biology, 2022):
Results are given in words; binding and its absence hold for the method and conditions named. Some results given as binding are weak or reduced against the parent protein; the word gives no strength.

Protein sequences, listed by entry. Tags and fused reporters are not part of them. Lines headed by an entry give the natural chain unless they say otherwise; changes in a name come on top. Residues count along the entry.
UniProt P18084, residues 743-774: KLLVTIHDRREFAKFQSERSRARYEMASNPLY

Biological target: T1, PAK4 catalytic domain D440N,S474E, the kinase part of the chimeric integrin β5^743–774-linker-PAK4cat^D440N,S474E (human) (UniProt O96013)
T1 sequence: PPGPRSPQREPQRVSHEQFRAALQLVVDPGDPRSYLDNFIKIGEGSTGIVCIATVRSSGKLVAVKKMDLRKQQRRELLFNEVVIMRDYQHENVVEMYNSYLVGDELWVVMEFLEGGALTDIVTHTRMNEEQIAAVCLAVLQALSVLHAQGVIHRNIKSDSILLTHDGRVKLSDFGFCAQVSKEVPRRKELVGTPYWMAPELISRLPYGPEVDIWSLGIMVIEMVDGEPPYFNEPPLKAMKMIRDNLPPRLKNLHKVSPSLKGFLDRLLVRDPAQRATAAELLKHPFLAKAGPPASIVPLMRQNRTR
Assay: crystal structure; chimeric integrin β5 743–774-linker-PAK4cat proteins (one chain), with 1 mM AMP-PNP and 5 mM MgCl2; built in cis, a trans complex is possible; both purified

binding: binds
Substance: integrin β5 tail residues 743–774, the integrin part of the chimeric integrin β5^743–774-linker-PAK4cat proteins (from UniProt P18084 743-774) (domain or fragment)
